“And” between values parts separate entries of the source, which are not always exact repeats. Identical values can stand only once. Inconclusive means that the source gave no clear call. Such entries were picked first, then a sample of the others. A potency beside an inconclusive call is a rough fit, not a confirmed value. The source made the active and inactive calls. Calls come from the whole dose curve; as a rule, active = well fitted cell-killing curve with a large enough effect in the repeat runs; inconclusive = weak or mixed curves, or effect the other way; inactive = flat fitted curve, though single readings scatter.
Assay: qHTS assay to identify small molecule agonists of the constitutive androstane receptor (CAR) signaling pathway - cell viability counter screen (AID 1224836)
Details: HepG2-CYP2B6-hCAR viability, CellTiter-Fluor, 23 h, PK11195 added to every well; series mostly up to 92.4 µM
In short: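 23 h treatment, 37 C, 5% CO2. Cell line: HepG2 stably expressing hCAR with a CYP2B6-2.2kb construct. Co-treatment: PK11195, 0.75 uM final. Read-out: CellTiter-Fluor fluorescence intensity.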
% is set by controls: 0 for no effect and ±100 for the full control effect; potency is the fitted concentration of half-maximal effect; tags give direction and shape of the fitted curve.
Note: nearly all actives have a fitted effect of over 45% in size.

Question: With CCCCCCCCCCCCCCCC[n+]1ccccc1 as the molecule, how does the Potency read?
Answer: active: 15.4 µM [middle of 4 runs]

Question: For CCCCNC(=O)OCC#CI, which Potency is on record?
Answer: inconclusive: 54.2 µM [cytotoxic, partial curve]

Question: Which Potency does the source give for Oc1c(Cl)c(Cl)cc(Cl)c1Cl here?
Answer: inconclusive: 84 µM [cytotoxic, partial curve, poor fit]

Question: For N#CS, which Potency is on record?
Answer: inactive

Assay: qHTS assay to identify small molecule antagonists of the constitutive androstane receptor (CAR) signaling pathway - cell viability counter screen (AID 1224837)
Details: HepG2-CYP2B6-hCAR viability, CellTiter-Fluor, 23 h, co-treated with 50 nM CITCO; series mostly up to 92.4 µM
In short: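 Read-out: CellTiter-Fluor fluorescence after 23 hr at 37 C/5% CO2. Cells: HepG2 double-stable for hCAR and CYP2B6-2.2kb. Compounds tested at 15 concentrations in the presence of CITCO, final concentration 50 nM.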

Question: With COc1ccc(N)cc1N as the molecule, how does the Potency read?
Answer: inconclusive: 37 µM [cytotoxic, single point]

Question: With NC(=S)Nc1ccccc1 as the molecule, how does the Potency read?
Answer: inconclusive: 27.8 µM [cytotoxic, partial curve]

Question: Which Potency does the source give for COP(=S)(OC)Oc1cc(Cl)c(Br)cc1Cl here?
Answer: inactive

Question: For CC1COC(Cn2cncn2)(c2ccc(Oc3ccc(Cl)cc3)cc2Cl)O1 (stereo not drawn), which Potency is on record?
Answer: inconclusive: 48.6 µM [cytotoxic, partial curve]

Question: With Nc1ccc([N+](=O)[O-])cc1N as the molecule, how does the Potency read?
Answer: active: 61.1 µM and active: 27.3 µM

Question: Which Potency does the source give for CN(C)c1ccc(N=Nc2ccccc2)cc1 here?
Answer: inconclusive: 54.5 µM [cytotoxic, partial curve]

Question: With NNc1ccccc1 as the molecule, how does the Potency read?
Answer: inactive

Question: Which Potency does the source give for CCCCCCCCCCCCCCCC[n+]1ccccc1 here?
Answer: inconclusive: 15 µM [cytotoxic, partial curve]

Question: With CCCCNC(=O)OCC#CI as the molecule, how does the Potency read?
Answer: inconclusive: 54.2 µM [cytotoxic, partial curve] and inconclusive: 21.7 µM [cytotoxic, full curve]

From PubChem BioAssay (Tox21)
